Some of the results follow.
B1: ENSG00000198589:be:win_401|CDS|ENSG00000198589|bound_else_gene|NA|bound_elsewhere_windowed (ssRNA)
RNA: GGGAGUUCUACAGUCCGACGAUCUUGAAAAAGUGCUUGGGAAAAUUGAAAAAGUUGACAAUAUGAUAGCAGAUCUUUUGGUUGACAUGUUGGGAGUGCUGGCUAGCUAUAAUUUGACAGUUCGCGAGCUAAAGCUUUUCUUCACAACAGAGGAUUGAGCAUCA
B2: chr19:3610644:3612413:-|three_prime_utr|ENSG00000105298|control|control|control (ssRNA)
RNA: GGGAGUUCUACAGUCCGACGAUCAGGGGGGUCACCAUUGAGCCUGCCAUGGUGAGCUGAGGAGACACUGGGACAGGCUGGCCUAGGGUCCUGAUGCAACGGAGGGGGCGCUAGGGGCAUCUUUCGAGCACGAGGGUGGCCAGCCAACAGAGGAUUGAGCAUCA
B3: ENSG00000070961:be:win_2501|CDS|ENSG00000070961|bound_else_gene|NA|bound_elsewhere_windowed (ssRNA)
RNA: GGGAGUUCUACAGUCCGACGAUCACUUUACAAGCAUUGUUAAAGCAGUUAUGUGGGGACGAAAUGUCUAUGACAGCAUCUCAAAAUUCCUUCAGUUCCAACUUACUGUUAAUGUAGUAGCAGUGAUUGUUGCUUUUACGGGCGCAACAGAGGAUUGAGCAUCA
B4: chr15:25371268:25371377:-|CDS|ENSG00000114062|unk|FALSE|unique (ssRNA)
RNA: GGGAGUUCUACAGUCCGACGAUCCACAAUGUAUACUCUCGAGAUCCUAAUUAUCUGAAUUUGUUCAUUAUCGUAAUGGAGAAUAGAAAUCUCCACAGUCCUGAAUAUCUGGAAAUGGCUUUGCCAUUAUUUUGCAAAGCGAUGCAACAGAGGAUUGAGCAUCA
B5: chr17:48622902:48623135:-|CDS|ENSG00000170689|control|control|control (ssRNA)
RNA: GGGAGUUCUACAGUCCGACGAUCUACCAGACGCUGGAGCUAGAGAAGGAGUUUCUGUUCAAUAUGUACCUCACCAGGGACCGUAGGCACGAAGUGGCCAGACUCCUCAAUCUGAGUGAGAGACAAGUCAAAAUCUGGUUUCAGCAACAGAGGAUUGAGCAUCA
B6: chr10:74136666:74136778:-|CDS|ENSG00000185009|unk|FALSE|unique (ssRNA)
RNA: GGGAGUUCUACAGUCCGACGAUCUUCAGAGGCUGCAAUUAAGGAUAAUGUGGUCAUAGUAUAUGAACUCUUAGAAGAAAUGUUAGACAAUGGAUUUCCACUGGCUACCGAAUCUAACAUUUUGAAAGAAUUGAUUAAACCACCCAACAGAGGAUUGAGCAUCA
B7: chr20:35276351:35277713:-|three_prime_utr|ENSG00000126005|control|control|control (ssRNA)
RNA: GGGAGUUCUACAGUCCGACGAUCCUCCUCUCCCCACGUCCCUGCGUCUCUUACACCCCCUCCCACCCGAGGCUCCCCAGAGAUAGCAGAGAAUUCGAAGAGGUCGCCGGGGACUGGAAAGAAGUCCCGGCAGGGCCGCCUUCGCAACAGAGGAUUGAGCAUCA
B8: chr3:27376575:27376676:-|3pUTR|ENSG00000033867|msi1|FALSE|bound_elsewhere (ssRNA)
RNA: GGGAGUUCUACAGUCCGACGAUCCUAUAUAUAAGAAUAUUGUAUGUCAUGCUGUUUAUGUGUGACUACCGGGUUUUUAAAAGUAGUGUCUGGAGUUUGUAAUGAGCACCGUGGAGACUAUGUAUUUAAUGAAAUGCUCUCUUUCAACAGAGGAUUGAGCAUCA
B9: ENSG00000124766:be:win_551|CDS|ENSG00000124766|bound_else_gene|NA|bound_elsewhere_windowed (ssRNA)
RNA: GGGAGUUCUACAGUCCGACGAUCCGAGUGGCGGCGGCGCCAACUCCAAACCGGCGCAGAAAAAGAGCUGCGGCUCCAAAGUGGCGGGCGGCGCGGGCGGUGGGGUUAGCAAACCGCACGCCAAGCUCAUCCUGGCAGGCGGCGCAACAGAGGAUUGAGCAUCA
B10: chr19:36448979:36450001:-|CDS|ENSG00000186017|control|control|control (ssRNA)
RNA: GGGAGUUCUACAGUCCGACGAUCCAGAGUUCACAGCUUAUUAGUCAUCAUAGAAUUCAUACUAGUGAGAAACCCUAUGAAUAUAGGGAAUGUGGAAAGAACUUUAAUUAUGACCCACAACUUAUUCAGCAUCAAAAUUUGUACCAACAGAGGAUUGAGCAUCA
B11: chr22:29695108:29695209:+|3pUTR|ENSG00000186575|msi1|FALSE|unique (ssRNA)
RNA: GGGAGUUCUACAGUCCGACGAUCGUGUGUGUGUGUCUUGCACUCCAGAGCUGACCUCCACCGCCCAGCCUGGGAAGUCAUUGUAGGGAGUGAGACACUGAAGCCCUGAGAAGCCAGUGCCAUCAUCCCCACCCCGCCCAGGGUCAACAGAGGAUUGAGCAUCA
B12: chr15:83017406:83017507:-|3pUTR|ENSG00000064726|msi1|total|mutant (ssRNA)
RNA: GGGAGUUCUACAGUCCGACGAUCGGCCUAAUAAAAUGCCCAAGAAAAUAUUCAGUGCAUUUACCGAGAAGGAUAUUUUGCCGCCGUACCGUAAUGUGUUAUGCCGUACAGUUUUAAAGCUAUAAAUGGAAUUUUGUGUAAAUUCAACAGAGGAUUGAGCAUCA
B13: ENSG00000196876:stop:overlap|stop_codon|ENSG00000196876|stop_codon|NA|stop_codon (ssRNA)
RNA: GGGAGUUCUACAGUCCGACGAUCCAGAGGAAGGAAGAAGGGAAAGAGCCAAAAGACAAAAAGAGGUCAGAGAAUCCAAGUGUUAGAGGAGAACAAAAAUUCAGUAUUAUACAGAUCUAAAACUCGCAAGUGAAAGAUUGUUUACAACAGAGGAUUGAGCAUCA
B14: chr18:722677:722778:-|3pUTR|ENSG00000176105|msi1|total|mutant (ssRNA)
RNA: GGGAGUUCUACAGUCCGACGAUCCCGCGCCCAGCCUACAUUCACUUCUAAAGUCUAUGUAAUGGUGGUCAUUUUUUCCCUUUCCGAAUACAUUAAAUGGUUGAUUUGGGGAGGAAAACUUAUUCUGAAUAUUAACGGUGGUGACAACAGAGGAUUGAGCAUCA
B15: chr22:39522180:39522281:+|CDS|ENSG00000128272|msi1|total|mutant (ssRNA)
RNA: GGGAGUUCUACAGUCCGACGAUCGCUUACGUUGCCAUGAUCCCUCAGUGCAUAAAGGAGGAAGACACCCCUUCAGAUAAUGACCGUGGCAUCUGUAUGAGCCCAGAGUCCUAUCUGGGGUCUCCUCAGCACAGCCCCUCUACCCAACAGAGGAUUGAGCAUCA
B16: chr14:74942539:74942640:-|3pUTR|ENSG00000119630|msi1|FALSE|unique (ssRNA)
RNA: GGGAGUUCUACAGUCCGACGAUCGUGUAUUUAUUACCGUCACACUCUUCAGUGACUCCUGCUGGUACCUGCCCUCUAUUUAUUAGCCAACUGUUUCCCUGCUGAAUGCCUCGCUCCCUUCAAGACGAGGGGCAGGGAAGGACACAACAGAGGAUUGAGCAUCA
B17: chr20:56369402:56369507:-|3pUTR|ENSG00000087586|unk|total|mutant (ssRNA)
RNA: GGGAGUUCUACAGUCCGACGAUCAGAAGAGGCCAUGUGUCUCAGAGCUGUUAAGGGCUUAUUUUUUUAAAACAUUGGAGUCACCGCAUGUGUGUAAACUUUAAAUAUGCAAAUAAAUAAGUAUCUAUGUCUGUGUGGAGUGCUCAACAGAGGAUUGAGCAUCA
B18: chr9:37126384:37126485:+|CDS|ENSG00000147905|unk|FALSE|unique (ssRNA)
RNA: GGGAGUUCUACAGUCCGACGAUCUAUCGAGAUGAGUCAUCUAGUGAACUGAGUGUUGAUAGUGAGGUGGAAUUUCAACUCUAUAGCCAAAUUCAUUAUGCCCAAGAUCUUGAUGAUGUCAUCAGGGAGGAAGAGCAUGAAGAACAACAGAGGAUUGAGCAUCA
B19: chr1:231223762:231225466:-|three_prime_utr|ENSG00000143633|control|control|control (ssRNA)
RNA: GGGAGUUCUACAGUCCGACGAUCAUCUGGAUGAACCUACUGAUGAGUUCUGACAAGGACGCCUUGAAUGUAUGUGGUGUUGCUAGCCCAUUAGAGCGCUUCACUGUCUCUCAUUUAUCCUUGUCAAAGUAGGAUUUAGUAAACCAACAGAGGAUUGAGCAUCA
B20: ENSG00000070961:be:win_1251|CDS|ENSG00000070961|bound_else_gene|NA|bound_elsewhere_windowed (ssRNA)
RNA: GGGAGUUCUACAGUCCGACGAUCGAAGUUCUUCAUUAUUGGAGUUACAGUUUUAGUGGUCGCAGUGCCAGAAGGUCUUCCACUUGCAGUCACGAUCUCACUGGCUUAUUCAGUCAAAAAAAUGAUGAAAGAUAAUAACUUAGUCAACAGAGGAUUGAGCAUCA
B21: chr8:38210266:38210373:+|CDS|ENSG00000156735|unk|total|mutant (ssRNA)
RNA: GGGAGUUCUACAGUCCGACGAUCAAAAAUCAUACAUGUGCUGGAGAAGGUCCAGUAUCUUGAACAAGAAGCCGAAGAAUUUGCCGGAAAAAAGACAGACAAAGCAUACUGGCUUCUGGAAGAAAUGCUAACCAAGGAACUUUUCAACAGAGGAUUGAGCAUCA
B22: chr1:179105649:179105771:-|3pUTR|ENSG00000143322|msi1|FALSE|bound_elsewhere (ssRNA)
RNA: GGGAGUUCUACAGUCCGACGAUCAGAAAGGAAACCUUGAUUCUUACCAUUGCUGCUCCAAAGGAGGCCCAGGUUAAGAGGAUUAGAGGAGACACGCGGUGCUGGGCAUUCCUGGCAGGUGUUGGGUGAUCCCCGCAGUAUGUCCAACAGAGGAUUGAGCAUCA

Target: MSI1 full-length (mouse, UniProt Q61474 1-362)
Test: nsRBNS (natural sequence RNA bind-n-seq); RBNS binding buffer (assumed for nsRBNS): 25 mM Tris pH 7.5, 150 mM KCl, 3 mM MgCl2, 0.01% Triton X-100, 500 ug/ml BSA, 20 U/ml SUPERase-In, 4 C; UNK is unkempt and MSI1 is Musashi-1; names of the RNAs are library labels; protein concentration not given here; high values mean tight binding

Sequence of UniProt Q61474 (Q61474 whole entry): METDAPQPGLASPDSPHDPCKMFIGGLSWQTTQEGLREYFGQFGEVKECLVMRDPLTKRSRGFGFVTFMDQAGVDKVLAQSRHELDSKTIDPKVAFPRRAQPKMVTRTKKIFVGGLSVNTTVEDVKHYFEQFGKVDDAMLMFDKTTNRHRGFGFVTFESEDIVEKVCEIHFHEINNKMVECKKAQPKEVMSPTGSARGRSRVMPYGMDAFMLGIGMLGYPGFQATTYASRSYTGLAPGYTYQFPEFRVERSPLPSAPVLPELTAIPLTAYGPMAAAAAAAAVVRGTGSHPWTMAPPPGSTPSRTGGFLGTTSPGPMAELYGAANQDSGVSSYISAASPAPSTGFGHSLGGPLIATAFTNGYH

Q: With B1 as the binder, how does the binding signal read?
A: 0.316 enrichment R

Q: Which binding signal does the source give for B2 here?
A: 0.74 enrichment R

Q: B3 was tested. Which binding signal did it give?
A: 0.314 enrichment R

Q: B4 was tested. Which binding signal did it give?
A: 2.23 enrichment R

Q: Which binding signal does the source give for B5 here?
A: 0.411 enrichment R

Q: Which binding signal does the source give for B6 here?
A: 0.651 enrichment R

Q: Which binding signal does the source give for B7 here?
A: 0.918 enrichment R

Q: Which binding signal does the source give for B8 here?
A: 0.444 enrichment R

Q: With B9 as the binder, how does the binding signal read?
A: 0.429 enrichment R

Q: How did the binding signal turn out when B10 was run?
A: 4.15 enrichment R

Q: How did the binding signal turn out when B11 was run?
A: 0.488 enrichment R

Q: With B12 as the binder, how does the binding signal read?
A: 0.489 enrichment R

Q: For B13, which binding signal is on record?
A: 0.516 enrichment R

Q: B14 was tested. Which binding signal did it give?
A: 0.31 enrichment R

Q: B15 was tested. Which binding signal did it give?
A: 0.521 enrichment R

Q: Which binding signal does the source give for B16 here?
A: 0.552 enrichment R

Q: B17 was tested. Which binding signal did it give?
A: 0.219 enrichment R

Q: Which binding signal does the source give for B18 here?
A: 0.431 enrichment R

Q: Which binding signal does the source give for B19 here?
A: 0.632 enrichment R

Q: How did the binding signal turn out when B20 was run?
A: 1.02 enrichment R

Q: B21 was tested. Which binding signal did it give?
A: 0.23 enrichment R

Q: How did the binding signal turn out when B22 was run?
A: 0.504 enrichment R

From publication PMC12136788
